In the supplement of paper PMC11417369:
± gives the standard deviation of the averaged measurements. The list shows a part of the results.

Tested on: PfAP2-I AP2 domain 3 (GST-tagged)
Assay: gcPBM binding intensity (ln(normalized median fluorescence intensity)); higher = stronger DNA binding
Outline: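 For binding intensity, the highest Masliner-normalised natural-log median intensity across replicate spots of either probe orientation was taken. Protein bound to the array was stained with Alexa488 anti-GST antibody and scanned at 488 nm. The protein, GST-tagged P. falciparum DNA-binding domains from E. coli at about 25 μg on average, had been applied for 1 h to an Agilent 4 × 180k array of primer-extended double-stranded 36-bp intergenic genomic probes and negative controls.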

Sequence | gcPBM binding intensity (ln)
GTGTTAACTATTATGAGTACTTATGTATTAATTCAT [XGTACX_site7767] | 8 ± 0.26
TTGCTTATTAAATGGGGTACATTATATATATATATA [XGTACX_site2515] | 9.04 ± 0.29
TAAATTTGTGGGATTTCACACAGGTTTATTTACATT [CACACA_site5455] | 7.41 ± 0.63
TTCAGAGAATAAAAATGTACATATAATATTTTAAAA [XGTACX_site577] | 7.77 ± 0.45
ATGTAGGTTAATTATTGTACGTAGGGGGTGTATATT [XGTACX_site3973] | 9.68 ± 0.2
CTCTTGTCATTTTGCACACACACATGTATAGGTTAT [CACACA_site3057] | 10.03 ± 0.085
TAATTTTATATTAAAAGTACATAATAAAAACTATAA [XGTACX_site8779] | 7.79 ± 0.22
AAGAAATATATATATATATATATATATATATATGTA [TGCATGCA_negctrl_site442] | 8.43 ± 0.23
TACATACACGGACACACACACATATATATATATATA [CACACA_site5883] | 9.36 ± 0.33
CACTAATATATATACAGTACATAATAAAGTATATAA [XGTACX_site6875] | 7.68 ± 0.26
TGATGATATAAAAACACACACATATAATATAATACT [CACACA_site1208] | 7.81 ± 0.52
TTTAAAAACAAATATTGTACAAATTAAAATATATCA [XGTACX_site7220] | 7.67 ± 0.47
AGAGCATAATAAAACACACACATACATACAGATATA [CACACA_site4671] | 7.86 ± 0.45
TATTACCCATATTATACACACATATATTATATATAT [CACACA_site1567] | 8.14 ± 0.42
CTGTTTTACTTTAGTAGTACAATAAAAATATAAAAA [XGTACX_site2934] | 8.13 ± 0.27
AAAAAAAAAAAACATACACACAAATATATACATACA [CACACA_site4011] | 7.62 ± 0.32
AAATGATGCATTTGTCATTAAAATTGTGAAATATTA [CACACA_negctrl_site231] | 7.46 ± 0.6
AAAAAAAAAAAAAAAAGTACATATATATATAATTAT [XGTACX_site7836] | 8.48 ± 0.48
ATAATATCTTCTTTTTTTTTTTTTTTTTTTTTTTTT [CACACA_negctrl_site1005] | 9.76 ± 0.042

Sequence | gcPBM binding intensity (ln)
TATAATAAAATATGTACACACATACAGACATATATA [CACACA_site6693] | 7.9 ± 0.2
ATATATATATAATGTGTACACACATATGTATTTATA [CACACA_site8170] | 9.03 ± 0.33
TAATTAAGATGATAAAAATTGAAAAAACAATTTTAA [CACACA_negctrl_site658] | 7.22 ± 0.53
CATATAGTATAAATTTGTACATAAATATATATATAT [XGTACX_site7477] | 8.995 ± 0.064
AGAGTATATAAAGTAACACACAATAAAATAAAATAA [CACACA_site2328] | 7.87 ± 0.94
TACCTAATATGTTATACACACATTATAAGTACATAT [CACACA_site7206] | 7.99 ± 0.38
AATATAACTTAGAATTGTACATAAAAAAAAATATAT [XGTACX_site3313] | 7.87 ± 0.61
TAAGAAATAAATAGTACACACATAGACACACGCACA [CACACA_site6821] | 8.76 ± 0.085
ATACATAAAATTAAAACACACATTTTATTAAATACG [CACACA_site2167] | 7.64 ± 0.58
GTGTGATGGTACAATATACACACTTAAAAAAAAAAA [CACACA_site8769] | 8.14 ± 0.35
AGTTATATGGTTAATACACACAACAAATGTTTCTTC [CACACA_site6642] | 7.98 ± 0.73
AAAAAATATATTTGCACACTCAAAAAAAAAAAAAAA [CACACA_site859] | 10.1 ± 0.55
TTCAAAAAATAAAATAATAATATATATATAAATATA [XGTACX_negctrl_site84] | 7.33 ± 0.11
TCATTAAAGGAAAAATGTACGTATAAATAAATATAT [XGTACX_site2587] | 7.85 ± 0.82
TGTGTTTATACGTTTTGTACATATTTTTATTTTGTA [XGTACX_site6425] | 7.79 ± 0.53
TTTACATCAACCTTTTCACACATTCATATACAGATA [CACACA_site6152] | 7.99 ± 0.48
TTTTTTATATTTAAACTTCACATGGTTTTCATTTAT [XGTACX_negctrl_site291] | 7.66 ± 0.54
ATACATATATATATATGTACACATAAACATGAGTGA [XGTACX_site3200] | 7.87 ± 0.45
TAATGGAAACCATTTATTTTCTGCAATATATTTTTT [CACACA_negctrl_site1653] | 7.67 ± 0.35

Sequence | gcPBM binding intensity (ln)
AATGTAAAATATAAATGTACATATATATATATATAT [XGTACX_site5071] | 9.38 ± 0.52
ATTTATTTATACAAAGTGCAATATTTTGTTAAAGTC [GTGCAC_site9618] | 10.6 ± 0.48
AAACAAAATATGGTTCATGAGCAAAAGTTTATTTTG [XGTACX_negctrl_site531] | 7.58 ± 0.78
CTCTTTTCTTATAATACACACAGTAATATATATATA [CACACA_site1520] | 8.9 ± 0.014
ATATGAAATATATAAATATGTTTATATATATATATA [GTGCAC_negctrl_site94] | 9.09 ± 0.7
TATAAAATACATTTATAATATATATATATATTTTTT [TGCATGCA_negctrl_site435] | 7.36 ± 0.38
GTAATTTTAAAGAAAAGTACACATTTATTAATTATT [XGTACX_site4468] | 7.63 ± 0.47
ACATATAAATATTGTGTGCACACACATAATATATAT | 10.2 ± 0.18
GTGTTAAATGTTTACACACAAACTTGCAATAATTAT [CACACA_site3825] | 8.09 ± 0.71
AAAAATTATAACTAAAAAAATCACACAAAATATTTT [TGCATGCA_negctrl_site28] | 7.55 ± 0.86
TTGCATTTATTATACACACACAAAAAAATATATATA [CACACA_site238] | 8.38 ± 0.38
TATGTATTTAAGTTACCTGAACGTTCAGGTAAAATT [CACACA_negctrl_site1393] | 7.7 ± 0.71
TTTATTCTCAAACACACACACATATATATATATATA [CACACA_site2895] | 9.28 ± 0.16
TAATTAATAATAATATGTACATATTAATATATTATT [XGTACX_site6900] | 7.63 ± 0.33
TTTTATATATATATCACACACACACCCATGTTTTAA [CACACA_site79] | 8.07 ± 0.61
TGATAAAGTAAATATACATGCGATTAGTTATATATA [TGCATGCA_site720] | 7.74 ± 0.26
TTGATAATTATATAATGTACTCATTATAATATGATG [XGTACX_site7813] | 7.8 ± 0.24
TATAAAAAAAAAAAAAGTACTAACTTAAAACAATTT [XGTACX_site7969] | 7.56 ± 0.67
